{"source": "patent US20230395193A1", "about": "(priority 2020, published 2023)", "tested_on": "newly diagnosed COVID-19 patients", "design": "species or system human", "details": "in vivo", "note": "Where “and” joins values, the source holds several entries; their conditions need not be identical. Equal values may be shown once.", "data": [{"smiles": "Cc1ccc(-c2cc(C(F)(F)F)nn2-c2ccc(S(N)(=O)=O)cc2)cc1", "note": "[celecoxib]", "values": [{"measurement": "Risk of any hospital visit per 1000 patients", "result": "98.04 per 1000 patients and 67.96 per 1000 patients"}, {"measurement": "Risk of confirmed inpatient stays per 1000 patients", "result": "45.75 per 1000 patients and 29.13 per 1000 patients"}]}, {"smiles": "COc1ccc2c(c1)c(CC(=O)O)c(C)n2C(=O)c1ccc(Cl)cc1", "note": "[indomethacin]", "values": [{"measurement": "Number of confirmed inpatient stays", "result": 1}, {"measurement": "Number of patients with any hospital visit", "result": "4 and 3"}, {"measurement": "Odds ratio of any hospital visit versus referent", "result": "0.25 and 0.41"}, {"measurement": "Risk of any hospital visit per 1000 patients", "result": "26.14 per 1000 patients and 29.13 per 1000 patients"}, {"measurement": "Risk of confirmed inpatient stays per 1000 patients", "result": "6.54 per 1000 patients and 9.71 per 1000 patients"}, {"measurement": "Risk ratio vs referent of any hospital visit", "result": "0.27 and 0.43"}]}]}
